The labels stand for the following.
B1: GPR68, Q15743 (parent)
chain: MGNITADNSSMSCTIDHTIHQTLAPVVYVTVLVVGFPANCLSLYFGYLQIKARNELGVYLCNLTVADLFYICSLPFWLQYVLQHDNWSHGDLSCQVCGILLYENIYISVGFLCCISVDRYLAVAHPFRFHQFRTLKAAVGVSVVIWAKELLTSIYFLMHEEVIEDENQHRVCFEHYPIQAWQRAINYYRFLVGFLFPICLLLASYQGILRAVRRSHGTQKSRKDQIQRLVLSTVVIFLACFLPYHVLLLVRSVWEASCDFAKGVFNAYHFSLLLTSFNCVADPVLYCFVSETTHRDLARLRGACLAFLTCSRTGRAREAYPLGAPEASGKSGAQGEEPELLTKLHPAFQTPNSPGSGGFPTGRLA

Scores with a large standard error are left out. The source holds two more conditions with little spread; they are left out. In variant names, del marks residues removed and ins residues inserted between the two positions. For part of these data: The concentration of ogerin is not given here.

The variants in data set [1] derive from B1. The experiment in a line: cAMP reporter score (Enrich2 score, wild type = 0); higher = more signal; HEK293T, FACS bins.
Variants of B1 are the subject of data set [2]. The experiment in a line: surface expression score (Enrich2 score, wild type = 0); higher = more signal; HEK293T, FACS bins.

For L92D, the cAMP reporter score is -0.847 in data set [1] (pH 5.5); -1.6 in data set [1] (pH 6); -1.05 in data set [1] (pH 6, modulator: ogerin); -0.886 in data set [1] (pH 6.5, modulator: ogerin). For the same variant, the surface expression score in data set [2] was -2.02.

For the variant L92W, the cAMP reporter score in data set [1] (pH 5.5) was found to be 2.66; in data set [1] (pH 6), 3.94; in data set [1] (pH 6, modulator: ogerin) it was 2.43; in data set [1] (pH 6.5, modulator: ogerin) it was 3.59. In addition, the surface expression score in data set [2] was 3.34.

With L92N, the cAMP reporter score in data set [1] (pH 5.5) was -0.747; in data set [1] (pH 6), -1.32; in data set [1] (pH 6, modulator: ogerin), -1.5; in data set [1] (pH 6.5, modulator: ogerin), -1.2. Moreover, in data set [2], the surface expression score is -0.993.

As for L92M, the cAMP reporter score in data set [1] (pH 5.5) was -0.546; in data set [1] (pH 6), -0.432; in data set [1] (pH 6, modulator: ogerin), -0.49; in data set [1] (pH 6.5, modulator: ogerin) it was -1.03. Moreover, the surface expression score in data set [2] was -0.63.

L92F: the cAMP reporter score in data set [1] (pH 5.5) is -0.157; in data set [1] (pH 6), 0.226; in data set [1] (pH 6, modulator: ogerin) it was -0.211; in data set [1] (pH 6.5, modulator: ogerin) it was 0.757. Besides, in data set [2], the surface expression score is -0.752.

Regarding L92S, the cAMP reporter score in data set [1] (pH 5.5) is -0.438; in data set [1] (pH 6), 0.439; in data set [1] (pH 6, modulator: ogerin) it was -1.06; in data set [1] (pH 6.5, modulator: ogerin) it was -0.972. In data set [2], the surface expression score was -0.989.

Turning to L92T, the cAMP reporter score in data set [1] (pH 5.5) was 0.267; in data set [1] (pH 6), -0.768; in data set [1] (pH 6, modulator: ogerin), -0.339; in data set [1] (pH 6.5, modulator: ogerin), -0.045. Also, in data set [2], the surface expression score was determined as 0.444.

With L92G, the cAMP reporter score was 0.492 in data set [1] (pH 5.5); -0.401 in data set [1] (pH 6); 0.401 in data set [1] (pH 6, modulator: ogerin); -0.878 in data set [1] (pH 6.5, modulator: ogerin). Also, the surface expression score in data set [2] is -0.332.

As to L92Q, the cAMP reporter score in data set [1] (pH 5.5) was -0.578; in data set [1] (pH 6) it was -1.44; in data set [1] (pH 6, modulator: ogerin) it was -1.11; in data set [1] (pH 6.5, modulator: ogerin), -1.49. Also, in data set [2], the surface expression score is -0.786.

Take L92R: the cAMP reporter score in data set [1] (pH 5.5) was -0.597; in data set [1] (pH 6) it was -1.65; in data set [1] (pH 6, modulator: ogerin), -1.06; in data set [1] (pH 6.5, modulator: ogerin), -1.03. The surface expression score in data set [2] was -0.067.

Consider Q95_V96del, for which the cAMP reporter score is -1.6 in data set [1] (pH 5.5); -0.863 in data set [1] (pH 6); -1.25 in data set [1] (pH 6, modulator: ogerin); -0.89 in data set [1] (pH 6.5, modulator: ogerin). The surface expression score in data set [2] is -2.54.

For the variant L92_S93del, the cAMP reporter score in data set [1] (pH 5.5) is -1.1; in data set [1] (pH 6), -0.058; in data set [1] (pH 6, modulator: ogerin), -0.996; in data set [1] (pH 6.5, modulator: ogerin) it was -0.64. In data set [2], the surface expression score is -1.96.

With S93_C94insGS, the cAMP reporter score in data set [1] (pH 5.5) was -1.83; in data set [1] (pH 6), -1.12; in data set [1] (pH 6, modulator: ogerin), -1.44; in data set [1] (pH 6.5, modulator: ogerin), -0.035. The surface expression score in data set [2] was -1.7.

Turning to Q95del, the cAMP reporter score in data set [1] (pH 5.5) was -0.994; in data set [1] (pH 6, modulator: ogerin), -0.581; in data set [1] (pH 6.5, modulator: ogerin), -0.535. The surface expression score in data set [2] was -0.765.

C97del: the cAMP reporter score in data set [1] (pH 5.5) was 0.135; in data set [1] (pH 6), -0.713; in data set [1] (pH 6, modulator: ogerin), -0.722; in data set [1] (pH 6.5, modulator: ogerin) it was -0.441. For the same variant, the surface expression score in data set [2] is -2.63.

L100D: the cAMP reporter score in data set [1] (pH 5.5) is -0.745; in data set [1] (pH 6.5, modulator: ogerin) it was -1.52.

As to L100M, the cAMP reporter score in data set [1] (pH 5.5) is -0.586; in data set [1] (pH 6), -0.981; in data set [1] (pH 6, modulator: ogerin) it was -1.46; in data set [1] (pH 6.5, modulator: ogerin), -0.999. In data set [2], the surface expression score was -0.325.

As for L100P, the cAMP reporter score in data set [1] (pH 5.5) is -1.57; in data set [1] (pH 6), -0.133; in data set [1] (pH 6, modulator: ogerin) it was -0.829; in data set [1] (pH 6.5, modulator: ogerin), -1.43. Besides, the surface expression score in data set [2] was -1.51.

As to L100Y, the cAMP reporter score was -2.27 in data set [1] (pH 5.5); -0.633 in data set [1] (pH 6); -1.67 in data set [1] (pH 6, modulator: ogerin); -2.27 in data set [1] (pH 6.5, modulator: ogerin). The surface expression score in data set [2] was -1.01.

With L100W, the cAMP reporter score in data set [1] (pH 5.5) was -1.33; in data set [1] (pH 6, modulator: ogerin), -2.29; in data set [1] (pH 6.5, modulator: ogerin) it was -1.85. In data set [2], the surface expression score is -0.601.

As for L100C, the cAMP reporter score in data set [1] (pH 5.5) was -0.399; in data set [1] (pH 6), -0.032; in data set [1] (pH 6, modulator: ogerin), -2.07; in data set [1] (pH 6.5, modulator: ogerin) it was -0.439.

For L100I, the cAMP reporter score in data set [1] (pH 5.5) was -0.138; in data set [1] (pH 6), -0.521; in data set [1] (pH 6, modulator: ogerin), -0.606; in data set [1] (pH 6.5, modulator: ogerin), -0.319. The surface expression score in data set [2] was 0.416.

On to L100Q, for which the cAMP reporter score was -1.66 in data set [1] (pH 5.5); -1.56 in data set [1] (pH 6); -1.17 in data set [1] (pH 6, modulator: ogerin); -0.969 in data set [1] (pH 6.5, modulator: ogerin). For the same variant, the surface expression score in data set [2] was -2.51.

In the case of L100S, the cAMP reporter score in data set [1] (pH 5.5) is -0.771; in data set [1] (pH 6), -0.958; in data set [1] (pH 6, modulator: ogerin), -1.02; in data set [1] (pH 6.5, modulator: ogerin) it was -1.51. Besides, the surface expression score in data set [2] was -1.16.

As for L100T, the cAMP reporter score in data set [1] (pH 5.5) is 0.945; in data set [1] (pH 6), -0.265; in data set [1] (pH 6, modulator: ogerin), -0.831.

As to L100E, the values for the cAMP reporter score in data set [1] (pH 5.5) and in data set [1] (pH 6) were -1.23 and -1.26, respectively.

Turning to L100G, the cAMP reporter score in data set [1] (pH 5.5) was -0.854; in data set [1] (pH 6), -2.33; in data set [1] (pH 6, modulator: ogerin), -1.68; in data set [1] (pH 6.5, modulator: ogerin), -1.04. For the same variant, the surface expression score in data set [2] was -2.13.

As to L100H, the cAMP reporter score was -1.75 in data set [1] (pH 5.5); -1.28 in data set [1] (pH 6); -2.6 in data set [1] (pH 6, modulator: ogerin); -0.574 in data set [1] (pH 6.5, modulator: ogerin). In addition, in data set [2], the surface expression score was -2.14.

With L100A, the cAMP reporter score in data set [1] (pH 5.5) was 0.565; in data set [1] (pH 6) it was 0.326; in data set [1] (pH 6.5, modulator: ogerin), -1.32. Also, the surface expression score in data set [2] was -0.707.

As to L100R, the cAMP reporter score is -0.837 in data set [1] (pH 5.5); -0.772 in data set [1] (pH 6); -1.31 in data set [1] (pH 6, modulator: ogerin); -1.28 in data set [1] (pH 6.5, modulator: ogerin). For the same variant, the surface expression score in data set [2] was -2.04.

On to L100N, for which the cAMP reporter score was -1.89 in data set [1] (pH 5.5); -1.21 in data set [1] (pH 6); -1.35 in data set [1] (pH 6, modulator: ogerin); -0.758 in data set [1] (pH 6.5, modulator: ogerin). Moreover, in data set [2], the surface expression score is -3.13.

For L100K, the cAMP reporter score is -0.785 in data set [1] (pH 5.5); -0.947 in data set [1] (pH 6); -2.13 in data set [1] (pH 6, modulator: ogerin). The surface expression score in data set [2] was -1.7.

The record behind these values is the GPR68 mutational scans of Howard et al. (2025).
